# Laboratory results from the supplement of paper PMC3334620.
# In all, about 33,000 sequences were measured (“E-score (-0.5 to 0.5)”: median about -0.054, highest 2% from about 0.35 on). The list shows a part of the results.
# Molecular target: T1, Stb5 (UniProt P38699)
# T1 sequence: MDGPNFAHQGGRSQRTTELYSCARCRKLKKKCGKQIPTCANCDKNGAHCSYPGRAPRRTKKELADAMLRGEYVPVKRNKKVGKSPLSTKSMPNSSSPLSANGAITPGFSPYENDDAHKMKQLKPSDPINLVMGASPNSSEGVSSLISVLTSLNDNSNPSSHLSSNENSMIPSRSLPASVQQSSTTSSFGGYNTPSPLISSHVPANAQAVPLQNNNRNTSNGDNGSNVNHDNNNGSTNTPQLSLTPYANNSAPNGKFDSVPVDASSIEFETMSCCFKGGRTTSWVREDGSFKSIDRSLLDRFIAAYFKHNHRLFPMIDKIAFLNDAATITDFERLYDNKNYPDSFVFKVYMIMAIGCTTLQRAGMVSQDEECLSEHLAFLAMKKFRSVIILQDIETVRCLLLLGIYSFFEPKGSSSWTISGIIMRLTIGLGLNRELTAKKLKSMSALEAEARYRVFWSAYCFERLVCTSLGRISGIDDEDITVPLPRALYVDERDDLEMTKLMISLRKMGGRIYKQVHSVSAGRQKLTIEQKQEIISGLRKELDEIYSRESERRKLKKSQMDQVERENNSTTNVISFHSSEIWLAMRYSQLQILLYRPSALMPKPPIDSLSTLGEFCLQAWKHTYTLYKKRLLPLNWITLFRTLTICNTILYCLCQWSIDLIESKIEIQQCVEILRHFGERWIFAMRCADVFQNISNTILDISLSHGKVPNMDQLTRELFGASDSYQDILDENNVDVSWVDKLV
# Experiment: PBM E-score (8-mer binding enrichment) (E-score (-0.5 to 0.5)); higher = stronger / more preferred TF binding; most listed sequences are background and not binding sites
# Conditions: protein concentration: 200 nM; construct: GST-full length
# How it was run: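 For each ungapped eight-base word taken together with its reverse complement, the Universal PBM Analysis Suite assigned an E-score. Binding data came from GST-tagged yeast transcription factors, applied at about 100-200 nM, on universal all-10-mer Agilent arrays made double-stranded by primer extension. Fluorescent anti-GST marked bound protein, and scans were normalised with masliner.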
row,Sequence,PBM E-score
1,TGCCAAAA,-0.0261
2,AAAGTTCA,0.0451
3,ACTTTACG,-0.146
4,GTATTAAC,0.163
5,CGTGGGAA,-0.29
6,TAGCGGAA,0.106
7,ACAGCTAG,-0.15
8,ATCCACTG,-0.193
9,ACCTTGCT,-0.181
10,ATATGGAT,-0.268
11,CGGCACGC,0.26
12,GGGGATCA,-0.0761
13,ACTTCGGG,0.135
14,CTGTCTTC,-0.21
15,CAAAGCAC,-0.108
16,AAAGTCCC,0.274
17,AAGAAGAA,-0.0176
18,GCGATATA,0.0755
19,ATGTCGCA,-0.0499
20,CGGAACAC,0.0811
21,ATACGCGC,-0.0315
22,AGTCGTTG,-0.269

row,Sequence,PBM E-score
1,CAGAGGGA,-0.261
2,CCTACCGC,0.169
3,AGGTGTTC,-0.101
4,CAGGGGGG,-0.104
5,AGCTATTG,-0.169
6,AGTTGTCA,-0.0673
7,TAGACACA,-0.0588
8,TCTATCCA,-0.153
9,ATAAGGGG,-0.0458
10,ACTTATCA,-0.11
11,TAATGCCA,-0.111
12,GCCTCAAC,-0.0908
13,ATACTTAC,-0.129
14,GAATCAAA,-0.0273
15,CGATGCAG,-0.0534
16,ACTTCCTG,-0.219
17,GAACGAAC,0.0361
18,AAAGTCCA,-0.136
19,AATCCCTA,-0.0614
20,ACTATCCT,-0.0158
21,AGGGCTAG,-0.198
22,AGCCTGGA,-0.16

row,Sequence,PBM E-score
1,AGGGTCAG,-0.213
2,AGACAGAC,-0.0465
3,CTCAACTA,-0.0688
4,ATATAGAA,0.131
5,GTAGACTA,-0.00029
6,ACTTACCA,-0.138
7,CCTTGGGA,-0.0865
8,TAATAGAA,-0.074
9,AGTCGAGG,-0.0953
10,ACCCCGAC,0.444
11,CGGGCTAA,0.3
12,CCGGCAAC,0.298
13,CAAGTAGA,-0.0427
14,AGGGACGA,0.00173
15,TGCATTAA,-0.146
16,TCTTACCA,-0.0054
17,CTAGGAAA,-0.0895
18,CCTTATGC,-0.172
19,GAGCTATC,0.0611
20,ATGACTGG,-0.128
21,CCGTCCCG,0.239
22,GCGGCGGA,0.333

row,Sequence,PBM E-score
1,GAGATGGC,0.0637
2,GTCCAGAA,-0.0587
3,CACAGTTC,-0.0473
4,CACTTTCG,-0.104
5,CATAGCGA,-0.153
6,CGTCACCC,0.0988
7,AGGTGGGG,-0.136
8,GTCCCTGA,-0.284
9,AAAATGGC,-0.0128
10,TATGCAAA,-0.233
11,GGCCGACC,0.271
12,AATGCATC,-0.252
13,AACGGGCA,0.276
14,AGAATATA,0.0197
15,AAATGCTA,-0.223
16,ACGATTCA,-0.119
17,AGGGTAAT,-0.0459
18,CGCTCCCC,-0.0584
19,TCCTCAAA,-0.0986
20,CGAGGGCG,0.178
